# ± gives the standard deviation of the averaged measurements. The full ranking holds about 33,000 sequences; the median of “E-score (dimensionless, -0.5 to 0.5)” is about -0.046, and the highest 2% start at about 0.36. Some of the results follow.
# Test system: T1, SpTbr T-box DNA-binding domain (GST fusion)
# T1 sequence: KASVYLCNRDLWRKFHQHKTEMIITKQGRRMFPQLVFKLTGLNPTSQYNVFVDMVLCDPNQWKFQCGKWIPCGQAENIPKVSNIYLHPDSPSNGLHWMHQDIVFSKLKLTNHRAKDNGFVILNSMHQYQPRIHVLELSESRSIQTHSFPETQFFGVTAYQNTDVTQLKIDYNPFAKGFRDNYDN
# Test: PBM E-score of 8-mer (E-score (dimensionless, -0.5 to 0.5)); Tbr is Tbrain of the sea star Patiria miniata (Pm) or the sea urchin Strongylocentrotus purpuratus (Sp); higher = stronger binding preference; most listed sequences are background and not binding sites
# Conditions: the construct has about 5 more residues each side
# In short: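 Expression of GST-fused Tbr T-box DNA-binding domains, each holding the full T-box plus roughly five flanking residues, was carried out in BL21 E. coli at 20 °C, with purification by glutathione affinity chromatography. Universal Agilent arrays made double-stranded by primer extension were incubated with the protein at 200 nM in PBS (pH 7.5), then scanned and quantified. All ungapped 8-mers were scored from probe intensities, and each received an enrichment E-score from the Universal PBM Analysis Suite, averaged over duplicate arrays.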
row,Sequence,PBM E-score of 8-mer
1,CGCTGAAA,-0.196 ± 0.005
2,AGCTATAT,0.0355 ± 0.024
3,TCAATTCA,0.0683 ± 0.018
4,GCCTCCTA,-0.102 ± 0.035
5,GGGCGAGA,0.222 ± 0.0041
6,CCCTTCCC,-0.195 ± 0.045
7,CTCTTCGA,0.0979 ± 0.038
8,CCGCGAGG,0.0756 ± 0.063
9,AGTCTCCC,-0.149 ± 0.013
10,AGCGGACG,-0.0886 ± 0.041
11,GCTGGACA,0.0335 ± 0.046
12,AAAAAACC,-0.0953 ± 0.011
13,TGGGACCA,-0.11 ± 0.029
14,AGAGCCAA,-0.0561 ± 0.026
15,CTAAGACC,-0.128 ± 0.049
16,CTCCATAA,-0.257 ± 0.031
17,AAGTGCCG,0.2891 ± 0.0011
18,CAGGAAGC,-0.243 ± 0.042
19,GCGTGCAA,0.184 ± 0.014
20,AGTGCCAC,0.25 ± 0.013
21,AAAACCGG,-0.178 ± 0.015
22,AAGCTGGG,-0.0949 ± 0.031
23,AGATGTCC,-0.309 ± 0.003
24,GAGTAAAA,0.0191 ± 0.06
25,ACTAAATG,0.024 ± 0.056

row,Sequence,PBM E-score of 8-mer
1,GGCCCTTA,-0.184 ± 0.063
2,ACGTAATA,-0.268 ± 0.026
3,AGGGTTCC,-0.233 ± 0.011
4,CCGGCGAC,0.143 ± 0.06
5,ACAATAAC,0.0418 ± 0.034
6,GCAACTCA,-0.0217 ± 0.065
7,CTACCCAG,-0.302 ± 0.024
8,CCGCATCC,-0.174 ± 0.075
9,TAGCCTGA,-0.2453 ± 0.0021
10,CTGAAGCA,-0.141 ± 0.0054
11,ACAAAAGG,0.0677 ± 0.051
12,ATTATAGA,-0.125 ± 0.035
13,CACTTAGG,0.117 ± 0.04
14,CGGTTACG,-0.0824 ± 0.064
15,CTCTTCGC,0.186 ± 0.037
16,CAGGGGAG,-0.251 ± 0.039
17,ACTTGCCA,0.28202 ± 3.5e-05
18,CTCATAGC,0.11 ± 0.039
19,AGGGGGAT,-0.262 ± 0.033
20,GAATTTTA,-0.0119 ± 0.058
21,ATGTGAGG,0.28 ± 0.041
22,ACTAGAAC,-0.0532 ± 0.0099
23,ATTTATTC,0.0408 ± 0.033
24,GGTACATA,-0.212 ± 0.05
25,GATCGATA,0.125 ± 0.056

row,Sequence,PBM E-score of 8-mer
1,CCACAGAA,0.14 ± 0.11
2,GAAAACGC,-0.0489 ± 0.024
3,ATTGGGTA,-0.207 ± 0.04
4,AATCGCAC,0.4074 ± 0.00091
5,AACACGAT,0.291 ± 0.022
6,GTTTATCA,-0.00507 ± 0.13
7,ACGCGTTA,0.2834 ± 0.0018
8,ACGAGTTG,0.228 ± 0.025
9,GGAATGCA,-0.286 ± 0.048
10,AGAGACTG,-0.196 ± 0.075
11,AGTTAGAT,-0.191 ± 0.0088
12,ATCACCGC,-0.0213 ± 0.03
13,ACCGAGCA,-0.0399 ± 0.074
14,ACTCGCCA,0.0725 ± 0.023
15,AACCTCGG,-0.108 ± 0.049
16,GGTTAGAC,-0.182 ± 0.072
17,CTTAGAAA,-0.209 ± 0.049
18,CTGGATAC,-0.27 ± 0.011
19,CTGCTCGC,0.195 ± 0.02
20,CGCGCGGA,0.189 ± 0.07
21,CTCGCCTC,0.192 ± 0.054
22,ATTCTGCC,-0.0759 ± 0.078
23,CAGAGACC,-0.343 ± 0.046
24,AATAGAAG,-0.111 ± 0.0034
25,TAGCAGGA,-0.0122 ± 0.014

row,Sequence,PBM E-score of 8-mer
1,AAGTTCTG,-0.188 ± 0.025
2,GGGCGAAA,-0.0835 ± 0.036
3,AACATGAT,-0.0693 ± 0.025
4,CACGAACC,-0.0691 ± 0.083
5,AAGCGATC,-0.203 ± 0.015
6,TAATCCTA,-0.339 ± 0.014
7,AAACACAC,0.246 ± 0.034
8,ACCTACAT,0.0216 ± 0.051
9,CGCAAGAG,0.00988 ± 0.026
10,GGGGCTAC,-0.26 ± 0.02
11,ACGGTACT,-0.153 ± 0.0092
12,GGATAGAC,-0.202 ± 0.041
13,GGGTTAGA,-0.0855 ± 0.059
14,CATCAACG,0.0446 ± 0.02
15,ACATCACT,0.0901 ± 0.025
16,GATAGGAC,-0.15 ± 0.054
17,ACGACATG,0.1 ± 0.034
18,TGGTACCA,-0.086 ± 0.026
19,CAGCAATC,-0.0968 ± 0.013
20,AAAACCCG,0.0484 ± 0.011
21,CTATTCAC,0.212 ± 0.03
22,AAGAGTGT,0.301 ± 0.014
23,CAAGAAGA,-0.275 ± 0.042
24,GCATTACA,-0.0965 ± 0.02
25,CAAAAACC,0.0904 ± 0.0047

row,Sequence,PBM E-score of 8-mer
1,GCTGGGGA,0.00996 ± 0.029
2,CTCGCACA,0.37 ± 0.016
3,CTGACAGC,0.318 ± 0.0042
4,CCAAAGTC,-0.1042 ± 0.00045
5,ATGTGTCC,0.144 ± 0.014
6,GGCTGGAA,-0.0723 ± 0.015
7,CGTTTTGC,0.0266 ± 0.023
8,AACTAAGT,-0.0152 ± 0.016
9,CCCTGCAG,-0.16 ± 0.046
10,CCTTCACG,0.278 ± 0.019
11,GGCCAAGA,-0.247 ± 0.012
12,CGTGAGAG,0.29 ± 0.029
13,CTCGATGC,0.0748 ± 0.0089
14,GGCTACTA,0.0206 ± 0.016
15,ACGATCAT,-0.0399 ± 0.051
16,GGTACGAC,-0.102 ± 0.0037
17,CATCCCAA,-0.0964 ± 0.067
18,CAGACAGA,-0.117 ± 0.048
19,GCCGAGAC,-0.108 ± 0.15
20,CACTCCGC,-0.0254 ± 0.02
21,GCACTCCA,0.0376 ± 0.031
22,ACTTTCAG,-0.00936 ± 0.026
23,CATATCTC,0.0558 ± 0.021
24,AAGTACGT,-0.0297 ± 0.078
25,CGGGATCA,-0.031 ± 0.0063

row,Sequence,PBM E-score of 8-mer
1,ATCGCTTG,-0.0947 ± 0.051
2,AGCCCAAT,-0.276 ± 0.042
3,CCTTTGTA,-0.0607 ± 0.053
4,CCACTGGG,-0.0679 ± 0.051
5,AGGCAATC,-0.232 ± 0.064
6,ACTTTTCA,0.152 ± 0.068
7,GTCGGCAC,0.209 ± 0.042
8,ACGAATGC,-0.0199 ± 0.0011
9,AGCACACG,-0.00428 ± 0.025
10,AAAATAAC,0.0155 ± 0.052
11,CACGTGAA,0.113 ± 0.013
12,TATGGAAA,-0.205 ± 0.03
13,CGGACATC,-0.287 ± 0.1
14,CGCCGAAA,-0.021 ± 0.075
15,CGCGGACC,0.219 ± 0.039
16,AGTGGATC,-0.201 ± 0.058
17,ATATGGCG,-0.157 ± 0.076
18,GGTCAAGA,-0.2007 ± 0.00072
19,CAGGGTAA,-0.204 ± 0.015
20,CCTACTAG,-0.0383 ± 0.072
21,CAGGATCA,-0.153 ± 0.14
22,ATGGACAG,-0.188 ± 0.05
23,ATATCTCC,-0.126 ± 0.007
24,GTGAAGAA,0.232 ± 0.012
25,AGGTGCAA,0.414 ± 0.005

row,Sequence,PBM E-score of 8-mer
1,GTCGAGAA,0.115 ± 0.0073
2,GGAAATCA,-0.166 ± 0.025
3,CCCCAAAG,0.0456 ± 0.024
4,CAACGAAG,-0.0923 ± 0.14
5,AGCGTACT,-0.179 ± 0.0054
6,AAGGCCAG,-0.123 ± 0.079
7,CTACCAAG,-0.0616 ± 0.013
8,ATATGTTG,-0.00329 ± 0.071
9,AGGGCGGG,-0.0912 ± 0.034
10,AGACCAAT,-0.179 ± 0.015
11,TACTTGAA,-0.218 ± 0.075
12,GCAGTACA,-0.227 ± 0.0085
13,GGATTACA,-0.0273 ± 0.0079
14,ACACACAC,0.316 ± 0.028
15,CGAGAATA,-0.0372 ± 0.015
16,CATCTTGG,-0.163 ± 0.059
17,CATCGGCA,-0.0753 ± 0.08
18,AGTGATAT,0.13 ± 0.043
19,CGAAGTAC,-0.169 ± 0.067
20,GAAGGGGC,-0.116 ± 0.014
21,TGAGAACA,0.334 ± 0.012
22,ATCCGCTC,-0.111 ± 0.014

# Source: the supplement of paper PMC4166925
